Some of these densities may be calculated back from excess volumes.
Assay: xn = mol fraction of the nth substance listed
Details: 298.15 K, 101 kPa

CCCC[n+]1ccccc1C.F[B-](F)(F)F + BrCBr
Details	mass density [kg/m3]
x2 = 0.1614	1283.5
x2 = 0.2193	1317.9
x2 = 0.2722	1352
x2 = 0.376	1428
x2 = 0.4742	1513.3
x2 = 0.5351	1574.7
x2 = 0.6016	1650.4
x2 = 0.7315	1833.8
x2 = 0.7945	1945.2
x2 = 0.844	2046.2
x2 = 0.8995	2177
x2 = 0.9535	2327.9

CCCC[n+]1ccccc1C.F[B-](F)(F)F + BrCCBr
Details	mass density [kg/m3]
x2 = 0.0923	1243.7
x2 = 0.1331	1263.6
x2 = 0.2385	1320

CCCC[n+]1ccccc1C.F[B-](F)(F)F + BrCCCBr
Details	mass density [kg/m3]
x2 = 0.1088	1246.5
x2 = 0.2115	1294
x2 = 0.2977	1338.8
x2 = 0.3752	1383
x2 = 0.5766	1520.6
x2 = 0.625	1559.8

CCCC[n+]1ccccc1C.F[B-](F)(F)F + BrCCCCBr
Details	mass density [kg/m3]
x2 = 0.0273	1211.3
x2 = 0.099	1239
x2 = 0.1874	1276
x2 = 0.2254	1292.9
x2 = 0.3109	1333.8
x2 = 0.3364	1346.5

BrCBr + CCCC[n+]1ccc(C)cc1.F[B-](F)(F)F
Details	mass density [kg/m3]
x1 = 0.0955	1228.8
x1 = 0.2106	1293
x1 = 0.28	1337.6
x1 = 0.3312	1373.6
x1 = 0.4082	1434.2
x1 = 0.4738	1492.9
x1 = 0.5399	1559.8
x1 = 0.6065	1636.9
x1 = 0.7187	1795.5
x1 = 0.8721	2098.7
x1 = 0.9289	2249
x1 = 0.9777	2401.5

BrCCBr + CCCC[n+]1ccc(C)cc1.F[B-](F)(F)F
Details	mass density [kg/m3]
x1 = 0.0578	1208
x1 = 0.1307	1242.7
x1 = 0.2407	1301.4
x1 = 0.3346	1358.8
x1 = 0.4944	1476.2
x1 = 0.5618	1535.1

BrCCCBr + CCCC[n+]1ccc(C)cc1.F[B-](F)(F)F
Details	mass density [kg/m3]
x1 = 0.1031	1225.8
x1 = 0.2013	1271.6
x1 = 0.2946	1319.8
x1 = 0.3753	1366.2
x1 = 0.4475	1411.7
x1 = 0.5114	1455.8
x1 = 0.5789	1506.5
x1 = 0.6308	1548.8
x1 = 0.6843	1595
x1 = 0.7329	1641.9
x1 = 0.8594	1779.9
x1 = 0.9018	1832.8
x1 = 0.9673	1922.2

BrCCCCBr + CCCC[n+]1ccc(C)cc1.F[B-](F)(F)F
Details	mass density [kg/m3]
x1 = 0.0554	1203.9
x1 = 0.1026	1222.7
x1 = 0.1904	1259.9
x1 = 0.267	1294.7
x1 = 0.3436	1332.2
x1 = 0.4165	1370.5
x1 = 0.4806	1406.8
x1 = 0.5085	1423.3

BrCCCCCBr + CCCC[n+]1ccc(C)cc1.F[B-](F)(F)F
Details	mass density [kg/m3]
x1 = 0.0869	1213.6
x1 = 0.1655	1243
x1 = 0.2389	1272

BrCBr + CCCC[n+]1cccc(C)c1.F[B-](F)(F)F
Details	mass density [kg/m3]
x1 = 0.078	1220.9
x1 = 0.133	1249.6
x1 = 0.293	1347.6
x1 = 0.4706	1491.3
x1 = 0.5399	1561.3
x1 = 0.61	1642.9
x1 = 0.8044	1950.4
x1 = 0.875	2106.2
x1 = 0.9323	2259

BrCCBr + CCCC[n+]1cccc(C)c1.F[B-](F)(F)F
Details	mass density [kg/m3]
x1 = 0.0695	1213.6
x1 = 0.122	1238.4
x1 = 0.244	1303.2
x1 = 0.331	1356.3
x1 = 0.4907	1473.2
x1 = 0.5365	1512.2

BrCCCBr + CCCC[n+]1cccc(C)c1.F[B-](F)(F)F
Details	mass density [kg/m3]
x1 = 0.0459	1201.8
x1 = 0.07	1211.9
x1 = 0.2119	1277.3
x1 = 0.3039	1325.8
x1 = 0.45	1414.8
x1 = 0.516	1460.5
x1 = 0.6317	1551.2
x1 = 0.6901	1602.9
x1 = 0.7603	1670.8

BrCCCCBr + CCCC[n+]1cccc(C)c1.F[B-](F)(F)F
Details	mass density [kg/m3]
x1 = 0.0352	1196.7
x1 = 0.099	1222
x1 = 0.1915	1261.5
x1 = 0.235	1281.2
x1 = 0.4401	1385.4

BrCCCCCBr + CCCC[n+]1cccc(C)c1.F[B-](F)(F)F
Details	mass density [kg/m3]
x1 = 0.0443	1198.7
x1 = 0.1295	1230.1
x1 = 0.1668	1244.4
x1 = 0.238	1272.9

Source: a compilation of properties of binary mixtures (doi:10.1039/c0cp02169e)
